Among all 48,000 compounds or so, about 450 (0.94%) were called active. Roughly 19% stayed inconclusive and do not appear here. Calls follow the shape of the dose curve; as a rule, active = well fitted inhibition curve with a large enough effect; inconclusive = small, poorly fitted or top-dose-only effect; inactive = no such curve, though single readings can be large or run the other way. Some of the results follow.
Assay: Primary qHTS for Identification of Small Molecule Inhibitors of Huntingtin Promoter Activity; also: nearly all actives have a fitted effect of over 50% in size
Conditions: HEK293 HTT promoter firefly luciferase reporter (activity 0% = vehicle and -100% = no light), 24 h; series mostly up to 57.5 µM; activity change, negative = inhibition: at the top concentration
Method in brief: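 HEK293 Fluc reporter, 2,500 cells/well, 24 h pre-culture; cpds up to 57.5 uM final, 24 h 37 degrees C; Dual-Glo, 10 min RT; normalized vehicle = 0%, zero RLU = -100%.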

Activity change, negative = inhibition, inactive:
Cc1cccc(NC(=O)CSc2ncc3c(n2)-c2cc(Cl)ccc2N(C)S3(=O)=O)c1C -17.9%, CC(C)c1ccc(Nc2cc(C(=O)NCCCN(C)Cc3ccccc3)c3ccccc3n2)cc1 -5.78%, CC(=O)N1CCN(C(=O)C(=O)Nc2c3c(nn2-c2ccc(Cl)cc2)CSC3)CC1 -12.5%, CCc1ccc(OCC(=O)Nc2cc3oc4ccccc4c3cc2OC)c(Br)c1 -13%, COc1ccc(-c2nnc(SCC(=O)N3CCCCC3)o2)cc1 41.2%, O=C(COc1ccccc1)Nc1c(C(=O)N2CCN(c3ccc(F)cc3)CC2)oc2ccccc12 -5.36%, CC1CCN(C(=O)CN2c3ccc(Br)cc3-c3ccccc3S2(=O)=O)CC1 43.4%, O=C1CC(c2ccccc2)Cc2[nH]c(=O)c(C(=O)Nc3ccc(F)cc3)cc21 (centres undefined) -8.26%, CCOc1ccc(CCNC(=O)CCCc2nnc3n(CCCOC)c(=O)c4sccc4n23)cc1 -11.6%, Cc1c(C(=O)N2CCCCCC2)c(S(=O)(=O)Nc2ccc(OC(F)(F)F)cc2)c(C)n1C -25.5%, CCOC(=O)c1ccc(NC(=O)CSc2cc(-c3ccccc3)nc(C)n2)cc1 -21.5%, CC(C)CC(=O)Nc1nnc(S(=O)(=O)N(C)c2ccc(Cl)cc2)s1 -16.9%, Cc1c(-c2ccc(Cl)cc2)c(=O)oc2c(CN3CCN(C)CC3)c(O)ccc12 -12.7%, O=C(CNC(=O)c1ccccc1Cl)OCc1cc(=O)n2nc(C3CC3)sc2n1 -10.9%, CC1CCc2c(sc3nc(-c4cc5ccccc5oc4=O)nc(Cl)c23)C1 (centres undefined) -5.92%, CCOc1ccc(C2c3c(-c4ccccc4O)n[nH]c3C(=O)N2Cc2cccnc2)cc1OC (centres undefined) -9.39%, O=S(=O)(c1cccc2cnccc12)N1CCCNCC1, CC(C)c1nn2c(=O)cc(COC(=O)c3cccc(NC(=O)c4ccccc4F)c3)nc2s1 -11.1%, CCC1Oc2ccc(C)cc2N(CC(=O)NCc2ccc(F)cc2)C1=O (centres undefined) -18.2%, COc1cccc(CNC(=O)Cn2c(=O)cc(C(F)(F)F)c3c(C)nn(C)c32)c1OC -0.736%, CCOC(=O)c1ccc2c(c1)sc1nc(-c3ccc(OCC)cc3)cn12 -9.98%, CCN(CC)CCCNC(=O)c1c2c(nc3ccccc13)C(=O)N(C1CCCCC1)C2 -8.88%, COc1ccc(NC(=O)CCc2nc3cccnc3n2-c2ccccc2)c(OC)c1 -32.2%, COc1ccc(N2C(=O)C(CC(=O)Nc3ccc(Cl)cc3)N(Cc3ccc4c(c3)OCO4)C2=O)cc1 (centres undefined) -27.1%, CCOC(=O)c1c(NC(=O)c2cc(=O)c3cc(Cl)ccc3o2)sc(C)c1C 13%, COc1cc(C(=O)Nc2ccccc2OCc2cc(=O)n3c(C)csc3n2)cc(OC)c1OC -3.1%, CCN1CCN(C(c2ccc(C)cc2)c2sc3nc(-c4ccco4)nn3c2O)CC1 (centres undefined) 10.7%, CCOc1ccc(CCNC(=O)CSc2nnnn2-c2ccccc2Cl)cc1OCC -19.5%, COCCn1c(=N)c(C(=O)NCC2CCCO2)cc2c(=O)n3ccccc3nc21 (centres undefined) -0.395%, COc1cccc(NC(=O)CSc2cc(C)[nH]c(=O)n2)c1 1.42%, CCN(CC)c1nn2c(=O)c(C(=O)NCc3cccc(OC)c3OC)cnc2s1 8.27%, CCCNC(C)(C)COC(=O)c1ccccc1 7.44%, CC1N=C2c3ccccc3N=C(SCC(=O)NCc3ccc(Cl)cc3)N2C1=O (centres undefined) -24.1%, CCS(=O)(=O)N1CC(=O)N(c2cccc(C)c2C)C(C)(C(=O)NC2CCCCCC2)C1 (centres undefined) 7.9%, COc1ccc(CNC(=O)c2cnn(-c3ccc(OC)cc3)c2C2CCN(C(=O)OC(C)(C)C)CC2)cc1 -27%, Cc1nc(SCC(=O)Nc2ccccc2Cl)cc(-c2ccccc2)n1 -9%, Cc1c2cnn(-c3ccccc3)c(=O)c2c(C)n1CC(=O)N1CCN(c2cccc(Cl)c2)CC1 -11%, Cc1cccc2c1-c1sc(C(=O)Nc3ccccc3C(N)=O)cc1CO2 50.7%, Cc1c(C(=O)N(C)c2ccccc2)sc2nc(-c3ccc(F)cc3)cn12 22.6%, CCc1cc2c(cc3c(=O)n(CC(=O)NC4CCC(C)CC4)nc(CC)n32)s1 (centres undefined) 58.9%, O=C1c2oc3ccccc3c(=O)c2C(c2ccccc2F)N1Cc1ccc2c(c1)OCO2 (centres undefined) -8.05%, O=C(Nc1cccc2cccnc12)c1cccc2c(Br)cccc12 6.83%, CCN(CC)CCNC(=O)c1sc2nc(C)cc(C)c2c1-n1cccc1 1.99%, COc1ccc(-n2c(Cc3ccccc3)nnc2SCc2nc(-c3ccccc3C)no2)cc1 -29.6%, Cc1ccc2onc(CNC(=O)N(C)Cc3ccccc3)c2c1 -2.58%, COc1ccc(NC(=O)Cn2ccn(Cc3ccccc3)c(=O)c2=O)cc1Cl -36.5%, CCc1ccccc1NC(=O)Cn1c(C(=O)OC)cc2oc(C)cc21 -9.42%, CCOC(=O)c1ccc(NC(=O)c2cccc3c(=O)c4c([nH]c23)CCCC4)cc1 -6.92%, CN(C(=O)CSc1cn(CC(=O)N2CCCC2)c2ccccc12)c1ccccc1 -3.93%, O=C(Nc1ccc(Br)cc1F)c1ccc2nc(CCc3ccccc3)oc2c1 28%, O=C(Cn1ncc2c3ccccc3n(Cc3ccc(F)cc3)c2c1=O)NC1CCCCCC1 -10.3%, COc1ccc(Nc2nc(-c3ccccc3)c3cc(Br)ccc3n2)cc1 -3.16%, Clc1ccccc1CNc1nc2ccccc2c2nc(-c3ccccc3)nn12 3.79%, O=C(C1CCCCC1)N(Cc1cccnc1)c1nc2c(F)cccc2s1 -28%, Cc1ccc(C)c(NC(=O)N2CCN(c3nnc(C)c4c(C)n(-c5ccccc5)nc34)CC2)c1 -13%, COc1cc2c(cc1OC)C(COc1ccccc1OC)N(C(=O)c1ccc(S(=O)(=O)N3CCCC3)cc1)CC2 (centres undefined) -13.7%, CCOc1ccccc1NC(=O)c1c(NC(=O)Cc2ccccc2)sc2c1CCCC2 -4.89%, Cn1cc(C(=O)N2CCN(c3cccc(Cl)c3)CC2)c(=O)c2cc(S(=O)(=O)N3CCCC3)ccc21 -4.63%, COC(=O)c1cc(OC)c(OC)c(OC)c1NC(=O)c1cc(=O)n(C)c(=O)n1C 3.44%, CCOc1ccc(NC(=O)CSc2ccc3ccccc3n2)cc1 18.8%, COCCCNC(=O)CN1C(=O)COc2ccc(S(=O)(=O)N3CCOCC3)cc21 -10.6%, O=C(O)Cc1cccc2ccccc12, O=C(CCNS(=O)(=O)c1cccc2nonc12)Nc1ccc(F)cc1 -8.58%, COC(=O)c1cccc(Nc2c(-c3ccc(O)cc3)nc3nc[nH]n23)c1 0.921%, Cc1cccc(C)c1NC(=O)N1CCC(C(N)=O)(N2CCCCC2)CC1 0%, O=C(Nc1ccc(F)cc1F)c1cc2ccc3cccnc3c2[nH]1 20.5%, Cc1ccccc1Nc1cc(C(=O)NC2CCC(C)CC2)c2ccccc2n1 (centres undefined) 57.9%, CCOC(=O)c1ccc(NC(=O)c2c(NCc3cccc(OC)c3)sc3c2CCC3)cc1 6.98%, Cn1cc(S(=O)(=O)N2CCCCCC2)cc1C(=O)Nc1ccccc1F -23.7%, COc1cccc(C(=O)NCC(c2ccc(N(C)C)cc2)N2CCc3ccccc32)c1OC (centres undefined) 1.15%, COc1ccc2oc(-c3ccc(C)c(NC(=O)c4sc5ccccc5c4Cl)c3)nc2c1 -1.89%, COc1ccc(N2CCN(c3oc(-c4ccccc4C)nc3S(=O)(=O)c3ccccc3)CC2)cc1 -5.65%, Cc1cccc(OCC(=O)Nc2c(C(=O)N3CCN(c4ccccc4)CC3)oc3ccccc23)c1 -10.3%, COc1cc(NC(=O)Cn2nc(Cc3cccnc3)c3ccccc3c2=O)cc(OC)c1OC -3.02%, CCc1nc2ccccc2n1CCCCOc1ccc(Cl)cc1 -5.56%, CC(NCCc1ccc(O)cc1)C(O)c1ccc(O)cc1 (centres undefined) -1.31%, CCCCN(CCCC)S(=O)(=O)c1ccc(C(=O)Nc2sc3c(c2C(N)=O)CCN(CC)C3)cc1 -27%, CCOc1ccccc1CNC(=O)CCCn1nc(C)c2sc3ccccc3c2c1=O 12.1%, O=C(Nc1ccc(-c2cn3cccnc3n2)cc1)c1ccccc1F 37.6%, Cc1ccc(OCc2ccc(-c3nc(C#N)c(N4CCN(c5cccc(Cl)c5)CC4)o3)o2)cc1 -9.07%, Cc1nc2c([nH]1)c(=O)n(C)c(=O)n2Cc1ccco1 12.9%, CC1=C(C(=O)Nc2cccc(Cl)c2)C2(CCCCCC2)OC1=O -30.2%, COc1ccccc1NC(=O)Cn1c(=O)n(CCc2ccccc2)c(=O)c2sc3ccccc3c21 6.59%, CCC1CN(C(=O)N2CCC(C(=O)NCCCc3ccccc3)CC2)c2ccccc2O1 (centres undefined) -25%, CCN1CCN(c2cc(C)c3cc(NC(=O)c4cc(Br)ccc4Cl)ccc3n2)CC1 -29.3%, COCCCNC(=O)CSc1nc(-c2ccc(OC)cc2)[nH]c1-c1ccc(OC)cc1 -16.4%, COc1ccc2oc(=O)cc(CN3CCN(c4ccccc4OC)CC3)c2c1 -9.37%, O=C(NCc1ccccc1Cl)c1ccc2nc(Cc3ccccc3)oc2c1 -9.15%, CCC(=O)N1c2ccccc2CC1C(=O)NCCN1CCN(c2cccc(Cl)c2)CC1 (centres undefined) -3.8%, CC(=O)N1CCCc2cc(S(=O)(=O)N3CCC(C(=O)NCc4ccccc4Cl)CC3)ccc21 -23.4%, COc1ccc(C(=O)Nc2cc3cc(Cl)ccc3oc2=O)cc1OC 12.3%, CCN(CC)C(=O)c1sc2c(c1C)c(=O)n(-c1ccc(OC)cc1OC)c(=O)n2Cc1cc(C)ccc1C 0%, COc1cccc(-c2nn(C)c3sc(C(=O)NCc4ccc(C)cc4)cc23)c1 -22.9%, CC(C)(O)CC(=O)NCCn1ccc2ncnc(Nc3ccc(Oc4cccc(C(F)(F)F)c4)c(Cl)c3)c21 -17.5%, CC(=O)Nc1ccccc1OCc1cc(=O)n2c(C)csc2n1 -1.04%, Cc1ccc(-c2nc(C)c(CCNC(=O)C(=O)Nc3ccc(C)c(Cl)c3)s2)cc1 7.87%, CCC1(C)CC(=O)NC1=O (centres undefined), CCN(CCCNC(=O)CSc1cc(=O)n(C)c2cc(Cl)ccc12)c1ccccc1 -20.3%, Cc1cc(=O)n2nc(N3CCC(C(=O)NCc4ccccc4F)CC3)sc2n1 -12.1%

From PubChem BioAssay AID1508623 (National Center for Advancing Translational Sciences (NCATS), 2021)
